In PubChem BioAssay (NCATS):
Inconclusive results, whose numbers are uncertain, are shown with a selection of clear calls. A potency beside an inconclusive call is a rough fit, not a confirmed value. Activity calls are given as the source filed them. The call rests on the fitted dose curve; in most records, active means well fitted activation curve with a large enough effect; inconclusive means small, poorly fitted or top-dose-only effect; inactive means no such curve, though single readings can be large or run the other way.

target: Cellular tumor antigen p53 (Homo sapiens) (UniProt P04637); experiment: Primary qHTS for small molecule compounds that upregulate eGFP-tagged delta133p53alpha (in N-terminal) cells. (AID 2060322); conditions: NCI-H358 eGFP-delta133p53alpha fluorescence, 24 h; activation: hits give high values;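 further: cells pre-induced with doxycycline then dosed without doxycycline; nearly all actives have a fitted effect of over 75% in size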;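 on activation: series mostly up to about 56 µM; 0% = DMSO vehicle and 100% = reference activator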
Procedure, shortened: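 NCI-H358 cells pre-induced 24 h with 10 ng/ml doxycycline for eGFP-delta133p53alpha, plated dox-free and exposed 24 h at 37C to titrated compounds. Fixed, Hoechst-stained; gated GFP peak intensity by laser scanning cytometry, normalized to DMSO (0%) and 57.5 uM 5-azacytidine (100%).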
Potency means the concentration at half of the fitted maximal effect; tags describe the fitted curve by direction and shape.

Sequence of UniProt P04637 (P04637 whole entry, looked up): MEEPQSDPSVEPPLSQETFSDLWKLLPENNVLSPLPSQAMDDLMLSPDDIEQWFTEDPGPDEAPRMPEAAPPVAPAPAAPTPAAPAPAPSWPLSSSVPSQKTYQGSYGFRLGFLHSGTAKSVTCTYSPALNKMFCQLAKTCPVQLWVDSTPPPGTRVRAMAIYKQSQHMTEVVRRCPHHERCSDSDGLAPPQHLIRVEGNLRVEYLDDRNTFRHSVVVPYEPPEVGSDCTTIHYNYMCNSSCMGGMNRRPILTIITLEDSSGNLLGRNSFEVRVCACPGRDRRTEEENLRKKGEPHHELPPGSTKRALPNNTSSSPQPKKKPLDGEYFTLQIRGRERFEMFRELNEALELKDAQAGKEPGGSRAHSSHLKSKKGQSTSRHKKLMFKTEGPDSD

| SMILES | Potency | activation |
| --- | --- | --- |
| CCCCCCC(=O)OC1CC(C)(C)NC(C)(C)C1 | inconclusive: 21.3 µM [activator, single point] |  |
| CO[C@H]1C[C@@H]2CC[C@@H](C)[C@@](O)(O2)C(=O)C(=O)N2CCCC[C@H]2C(=O)O[C@H]([C@@H](C)C[C@@H]2CC[C@@H](O)[C@H](OC)C2)CC(=O)[C@H](C)/C=C(\C)[C@@H](O)[C@@H](OC)C(=O)[C@H](C)C[C@H](C)/C=C/C=C/C=C/1C | inconclusive: 16.9 µM [activator, partial curve] |  |
| CC(C)Oc1ccc(-c2nc(-c3cccc4c3CCC4NCCC(=O)O)no2)cc1C#N (stereo not given) |  | inactive: 0% |
| C[C@H](NCc1ccc2c(c1)nc(NC(=O)c1ccc(-c3cn[nH]c3)s1)n2CCc1ccccc1)C(C)(C)C | active: 6.11 µM |  |
| Cc1cc(C(C)(C)C)c(O)c(C(C)(C)C)c1 | active: 21.9 µM |  |
| CC(C)Oc1ccc(-c2c[nH]cc2CN(C)CCN)cc1 | inconclusive: 34.3 µM [activator, single point] |  |
| NC(=O)c1ccc([N+](=O)[O-])cc1Cl | inconclusive: 15.5 µM [activator, partial curve] |  |
| CC(=O)O[C@@]1(C)[C@@H]2CC(=C(C)C)C(=O)C[C@@]2(C)CC[C@H]1OC(=O)C1(C)OC1C (stereo not given in full) | inconclusive: 1.17 µM [activator, partial curve] |  |
| C[C@H](CCC(=O)O)[C@H]1CC[C@H]2[C@@H]3[C@H](O)C[C@@H]4C[C@H](O)CC[C@]4(C)[C@@H]3CC[C@]12C |  | inactive: -19.5% |
| Cc1cccc(/C=N/Nc2cc(N3CCOCC3)n3nc(-c4ccncc4)cc3n2)c1 | active: 19 µM |  |
| O=C(OC1C=C(CO)C2C(OC3OC(CO)C(O)C(O)C3O)OC=CC12)c1ccc(O)cc1 (stereo not given) |  | inactive: -16% |
| C=C1C(=O)OC2C=C(C)CCC=C(C)CCC12 (stereo not given) |  | inactive: 22% |
| NC(=O)Nc1cc(-c2cccc(F)c2)sc1C(=O)NC1CCCNC1 (stereo not given) | active: 19 µM |  |
| C=C1C(=O)O[C@@H]2[C@H]1[C@H](O)C[C@]1(C)[C@@H](O)CC=C(C)[C@@H]21 | active: 15.1 µM |  |
| CC1=CCC(O)C2(C)CCC3C(C)C(=O)OC3C12 (stereo not given) | inconclusive: 23.9 µM [activator, partial curve, poor fit] |  |
